Experimental data: the supplement of paper PMC11417369
The list shows a part of the results.

What follows are sequences tested on PfAP2-HC AP2 domain (GST-tagged) (assay: gcPBM binding intensity (ln(normalized median fluorescence intensity)); higher = stronger DNA binding).
In short: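 In this array assay, P. falciparum DNA-binding domains with a GST tag, expressed in E. coli, were applied for 1 h to primer-extended double-stranded 36-bp intergenic genomic probes and negative controls on an Agilent 4 × 180k array. Bound protein was visualised with Alexa488 anti-GST antibody at 488 nm. Binding intensity is the highest Masliner-normalised natural-log median intensity across replicate spots of either probe orientation.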

Sequence	gcPBM binding intensity (ln)
ACTACATAAAATGACACACACAAACTTTAAAATTTA [CACACA_site3474]	10.2
ATATTTTCTAATCAATGTACTTATTCTACACATTAA [XGTACX_site5774]	9.71
TATATTTGGAAACACACACACAAAAAAAAAAAAAAA [CACACA_site2474]	9.98
ATATTTTATGTAAAGGTGCAAAACAACATTAAAAAA	9.84
ATATATACATTTCTATGTACATATGTATATATGTAT [XGTACX_site1522]	9.76
TTAATCTAGAGAAATTGTACATTTTATTAACACAAT [XGTACX_site1190]	9.37
ATAAAAGAAAACAATAGTACTTTAGTTTTTCTTTTT [XGTACX_site5686]	9.43
AAACAAAAGTAGAAGGTAGAGTATTTTATATTTAAA [GTGCAC_negctrl_site503]	9.57
AAACCTTTAGAAAATCGTACAAAACATAACCACCTA [XGTACX_site1098]	9.8
ATTTTTTTTTTTTGTTTTTTCTTACAAATTAAATGA [CACACA_negctrl_site1457]	9.48
AAATAACTCATGGGTTGTACTTAAAAAAAAAAAGAT [XGTACX_site4168]	9.71
TTTTTTTTTTTTCACGTGCACTATACATATAAGTAA	9.71
CTCTTGTCATTTTGCACACACACATGGATAGGTTAT [CACACA_site5655]	10.4
ATATCACATTCCACGGTACACACTAATAGAAAAATC [CACACA_site9204]	9.89
TTTATACAATTAGACACACACAAAAAGTATAAATAT [CACACA_site6637]	10.1
GGAACATATGAACTCACACACATTTTCACTTAAATA [CACACA_site3684]	10.6
TAAAATGATAAATGAATGTGATCATTTTATAAAATA [CACACA_negctrl_site674]	9.63
AATATTTATAAATTTACACACACACCGGTGAACATA [CACACA_site8579]	10.4
ATATATCACATGAACATTAAAAAAAAAAAAGAGGGG [TGCATGCA_negctrl_site187]	9.7
AAAATATATACAAGCAAACACACGTAATATATATTA [CACACA_site2152]	9.9
ATATTACTAATTAATGGTACACGTTATAATAAACTA [XGTACX_site7051]	9.55
GCATAAAATATGATCGCACACTGTTTAAAATACTTA [CACACA_site828]	9.81
AGGTAGTTCTGTATCACACACATATAAATATAAATA [CACACA_site7110]	9.89

Sequence	gcPBM binding intensity (ln)
ATACCTTCTTCATTCACACATATACGTAAAATGTTC [CACACA_site5657]	9.86
TTTAAACTAGAACAAGTGCAGATATGTATAATAATA	9.66
TATTTTTAGAAAATAAAGAAGGAGAATTGAAAATAT [CACACA_negctrl_site361]	9.49
ATTTATTTTTATCAAGCATGCATAAAAAATAAATTA [TGCATGCA_site440]	9.23
AAGAAAAGATATATATATAAATATATATATATATAT [TGCATGCA_negctrl_site353]	10
TTTTATTTTGGAACGTGTACATATAATTATTTATTG [XGTACX_site8094]	9.66
GTTCCATATATTACATGTACATATTTTTACATTTAA [XGTACX_site660]	9.95
TGATTAATAGCAGGTAGTACTATAATAATATAAATA [XGTACX_site2776]	9.65
AGAAGAAAAGAAATATGTACATAAACGTCTGAACTA [XGTACX_site1699]	9.75
ATAACAAATATGATAGCATGCTACATATTACAACTT [TGCATGCA_site524]	9.76
TTTAAAAAAAAAAAAAAAAATTCTACATGTAATTTA [CACACA_negctrl_site1205]	9.08
TGACATAAATTTAATACACACACAAAGAAAAAAAAA [CACACA_site9354]	10.2
GGTAGGTGGATATATACACACATATATTATAGATAT [CACACA_site7021]	9.88
CACAGATATATACATACACACATATATACACATATA [CACACA_site6323]	10.1
ATCGAGAAAAATAAAATAATACAATTTCTTTAAATA [XGTACX_negctrl_site162]	9.48
ATTCCCTTAAGAAACTGTACAAAACTTTCTTCGATT [XGTACX_site775]	9.57
GTGTGTGTATATATTTGTACATATATTTAAACATAT [XGTACX_site1074]	10.5
TATACATAAATTATATGTACTGAAAATACATAATTA [XGTACX_site3626]	9.55
AAAAAGAAGAATATATGTACACAAAATTTATGAGTT [XGTACX_site8609]	9.82
AAAAAAAAAAATATATTATTTTACTTGTTTATTTTA [CACACA_negctrl_site1447]	9.55
CATTATAAGAAACACACACACATATATATATATATA [CACACA_site1051]	10.1
AAATTCTTAACCCAACGTACATATAATAAATTCTTA [XGTACX_site8538]	9.46
